# Some of the results follow. No stated cut-off is given here; in the data, active = 3.2 or more and inactive = the rest. The signal is at background level for most entries.
# Tests used:
# Assay in all cases: enrichment score (SH2-bound / input frequency) (ratio); bacterial display of known human phosphotyrosine sites (pTyr-Var adds point mutants) read by sequencing; higher = stronger binding; tyrosines were phosphorylated by kinases first
# Settings in all cases: peptide library: Human pTyr
# SHP2 C-SH2 domain E139D = target: SHP2 C-SH2 domain E139D
# [1] = target: SHP2 C-SH2 domain wild-type
# SHP2 N-SH2 domain L43F = target: SHP2 N-SH2 domain L43F
# SHP2 N-SH2 domain T42A = target: SHP2 N-SH2 domain T42A
# SHP2 N-SH2 domain T52S = target: SHP2 N-SH2 domain T52S
# [2] = target: SHP2 N-SH2 domain wild-type
# 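Further: displayed peptides selected on beads carrying the immobilized SH2 domain, with library peptides lacking any tyrosine serving as negative controls.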
Binder,enrichment score (SHP2 C-SH2 domain E139D),enrichment score [1],enrichment score (SHP2 N-SH2 domain L43F),enrichment score (SHP2 N-SH2 domain T42A),enrichment score (SHP2 N-SH2 domain T52S),enrichment score [2]
DVHNLDYYKKTTNGR [FGFR3_HUMAN_648],inactive: 0.584,inactive: 0.984,inactive: 0.657,inactive: 0.726,inactive: 1.15,inactive: 0.671
MGISVVSYTLKDIHD [FLOT1_HUMAN_149],inactive: 1.13,inactive: 1.18,active: 14.1,inactive: 1.15,active: 9.57,inactive: 3.08
SAGAADHYGPDPTKA [FGR_HUMAN_34_YA],inactive: 0.643,inactive: 0.47,inactive: 0.501,inactive: 0.612,inactive: 0.633,inactive: 0.818
YESDDDSYEVLDLTE [FUND1_HUMAN_18],inactive: 1.24,inactive: 0.961,inactive: 1.13,inactive: 1.3,inactive: 0.905,inactive: 1.41
FTSAEPQYQPGDQTG [FGR_HUMAN_523],inactive: 0.674,inactive: 0.463,inactive: 0.533,inactive: 0.621,inactive: 0.566,inactive: 0.521
IEDDQEVYDDVAEQD [FYB_HUMAN_595],inactive: 1.26,inactive: 1.06,inactive: 1.01,inactive: 1.56,inactive: 2.3,inactive: 1.42
TSSLPEGYYEEAVPL [AFAP1_HUMAN_93],inactive: 0.85,inactive: 0.69,inactive: 0.758,inactive: 0.657,inactive: 0.786,inactive: 0.702
ANCTHDLYMIMRECW [FGFR3_HUMAN_724],inactive: 1.35,inactive: 1.65,inactive: 1.54,inactive: 1.53,inactive: 2.09,inactive: 2.16
ASFNTDPYVREFGIM [AGO2_HUMAN_393],inactive: 0.548,inactive: 0.535,inactive: 0.587,inactive: 0.466,inactive: 0.438,inactive: 0.651
NQSSGARYGTDPTPQ [FYN_HUMAN_30_YA],inactive: 0.655,inactive: 0.544,inactive: 0.576,inactive: 0.574,inactive: 0.608,inactive: 0.824
DLTYGNRYKNVKLPD [G6PD_HUMAN_428],inactive: 0.544,inactive: 0.545,inactive: 0.699,inactive: 0.603,inactive: 0.842,inactive: 0.758
CRNEEGKYGYVLRSY [FYB_HUMAN_755],inactive: 1.66,inactive: 1.32,inactive: 1.43,inactive: 1.42,inactive: 1.87,inactive: 1.45
SLNQSSGYRAGTDPT [FYN_HUMAN_28_YA],inactive: 0.758,inactive: 0.547,inactive: 0.693,inactive: 0.589,inactive: 0.615,inactive: 0.795
AESDDDSYEVLDLTE [FUND1_HUMAN_18_YA],inactive: 1.05,inactive: 1.08,inactive: 0.854,inactive: 1.22,inactive: 1.34,inactive: 1.28
GTGEDDDYVDDFNST [FR1OP_HUMAN_337],inactive: 1.06,inactive: 1.03,inactive: 1.09,inactive: 1.1,inactive: 1.37,inactive: 1.47
VDFREYEYDLKWEFP [FLT3_HUMAN_599],inactive: 1.21,inactive: 1.53,inactive: 1.19,inactive: 1.29,inactive: 1.72,inactive: 1.83
NEEGKAGYVLRSALA [FYB_HUMAN_757_YA],inactive: 0.791,inactive: 0.619,inactive: 0.567,inactive: 0.576,inactive: 0.693,inactive: 0.649
EDLADKPYTFEDADV [FXN_HUMAN_118_YA],inactive: 1.09,inactive: 1.09,inactive: 1.16,inactive: 1.11,inactive: 1.31,inactive: 1.26

Binder,enrichment score (SHP2 C-SH2 domain E139D),enrichment score [1],enrichment score (SHP2 N-SH2 domain L43F),enrichment score (SHP2 N-SH2 domain T42A),enrichment score (SHP2 N-SH2 domain T52S),enrichment score [2]
NLDPMHNYVNTENVT [FRS2_HUMAN_392],inactive: 0.847,inactive: 0.763,inactive: 0.79,inactive: 0.88,inactive: 0.988,inactive: 0.866
TVTSTDEYLDLSAPF [FGFR3_HUMAN_760],inactive: 0.656,inactive: 0.572,inactive: 0.501,inactive: 0.723,inactive: 0.531,inactive: 0.568
DQEPSLLYADLDHLA [G6B_HUMAN_211],inactive: 0.8,inactive: 0.634,inactive: 3.03,inactive: 2.17,inactive: 2.2,inactive: 0.902
DVHNLDAYKKTTNGR [FGFR3_HUMAN_648_YA],inactive: 0.828,inactive: 0.831,inactive: 0.89,inactive: 0.763,inactive: 0.77,inactive: 0.656
AEEQVHTYVNTTGVQ [FRS2_HUMAN_196],inactive: 1.72,inactive: 2.05,inactive: 1.78,inactive: 1.73,inactive: 1.99,inactive: 2.35
AARQQAAYAAQTSPQ [FUBP1_HUMAN_625_YA],inactive: 0.741,inactive: 0.745,inactive: 0.593,inactive: 0.718,inactive: 0.784,inactive: 0.747
EEGRASIYKSVIINT [FMO5_HUMAN_56],inactive: 0.918,inactive: 0.9,inactive: 0.737,inactive: 0.804,inactive: 0.951,inactive: 0.734
ARRQSGLYDSQNPPT [FNBP1_HUMAN_500],inactive: 0.681,inactive: 0.699,inactive: 0.621,inactive: 0.653,inactive: 0.697,inactive: 0.62
GVHHIDAYKKTSNGR [FGFR4_HUMAN_643_YA],inactive: 0.821,inactive: 0.849,inactive: 1.11,inactive: 0.811,inactive: 0.847,inactive: 0.809
MLAGVSEYELPEDPR [FGFR1_HUMAN_463],inactive: 0.691,inactive: 0.598,inactive: 0.676,inactive: 0.75,inactive: 0.664,inactive: 0.789
ADAEEAMYQNVDGRV [FLT3_HUMAN_955],inactive: 0.796,inactive: 0.65,inactive: 0.779,inactive: 0.611,inactive: 0.622,inactive: 0.908
TTAVEIDYDSLKLKK [FYB_HUMAN_571],inactive: 0.863,inactive: 0.682,inactive: 0.725,inactive: 0.848,inactive: 0.682,inactive: 0.829
MLAGVSEYELPEDPK [FGFR2_HUMAN_466],inactive: 0.819,inactive: 0.637,inactive: 0.601,inactive: 0.62,inactive: 0.803,inactive: 0.858
GVHHIDYYKKTSNGR [FGFR4_HUMAN_643],inactive: 1.32,inactive: 1.21,inactive: 0.94,inactive: 1.01,inactive: 0.83,inactive: 0.995
IKTGAPQYGSYGTAP [FIP1L1_HUMAN_110],inactive: 2.14,inactive: 0.75,inactive: 0.925,inactive: 0.807,inactive: 0.67,inactive: 0.692
SSSSDEEYIAMNKVT [AFAP1L2_HUMAN_54_YA],inactive: 0.64,inactive: 0.747,inactive: 0.767,inactive: 0.753,inactive: 0.673,inactive: 0.777
DPFIDLNYMVYMFQY [G3P_HUMAN_42],inactive: 1.78,inactive: 1.72,inactive: 1.62,inactive: 1.8,inactive: 2.02,inactive: 2.12
SSDNEYFYVDFREYE [FLT3_HUMAN_591],inactive: 2.02,inactive: 1.43,inactive: 1.51,inactive: 1.38,inactive: 1.87,inactive: 1.77

# From the supplement of paper PMC10369915
